From the RNAGym collection of RNA variant scans (doi:10.1073/pnas.2313332121)
Variants at the floor of the assay are shown more often than the library holds them.

B1: TPR 5TU (parent)
chain: GGAUCUUCUCGAUCUAACAAAAAAGACAAAUCUGCCACAAAGCUUGAGAGCAUCUUCGGAUGCAGAGGCGGCAGCCUUCGGUGGCGCGAUAGCGCCAACGUUCUCAACUAUGACACGCAAAACGCGUGCUCCGUUGAAUGGAGUUUAUCAUG

Variants of: B1
Experiment: polymerase ribozyme fitness, log enrichment relative to wild type (log ratio); higher = more active; in vitro selection for triplet polymerase activity
Method in brief: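 Fitness is a logarithmic measure of how a genotype enriched relative to the wild type, with replicate averages weighted by inverse variance. The logarithm uses base 2, and enrichment came from Illumina sequencing of input and output libraries. Those libraries were PCR-built, transcribed mutants of each subunit of a heterodimeric triplet polymerase ribozyme, passed through one triplicate in vitro selection round that included frozen incubation at −7 °C, gel excision of extended constructs and streptavidin-bead capture. Genotypes were kept only if they had ≥10 input reads and ≥1 read per output.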

Variant | polymerase ribozyme fitness (log ratio)
C10U A26G C51A C54U U56A A97G | ≤ -4.2
C10U A26U A41U G42A G86A C105A U135A U145G U146C | ≤ -4.2
C10U A28G A49G C85G C95U C103G G133U A147U | ≤ -4.2
C10U A28U A39C A49C U104G C118U | ≤ -4.2
C10U A29U G92A C99A U145C | ≤ -4.2
C10U A37C C75U C95G | ≤ -4.2
C10U A39G A73U G83U A147G A150U | ≤ -4.2
C10U A39U C79G G86C G92U A110G C132U G133U U139A | ≤ -4.2
C10U A40G C105G | ≤ -4.2
C10U A40G G84U U130G C131G U144A | ≤ -4.2
C10U A41U G70C G83U C108U U134A A142G | ≤ -4.2
C10U A91U C96U A119G G143A | ≤ -4.2
C10U A107G | ≤ -4.2
C10U C14G A24C A52C U53A C76A C99G | ≤ -4.2
C10U C14G A28U G58C U61C G70C C76G C96U A138G G140U C149G | ≤ -4.2
C10U C14G C76U A106G A107G C108U | ≤ -4.2
C10U C18G G50A A66G G88U A122U U139C | ≤ -4.2
C10U C18U A22U A30C C51G U53G A66C C75A C87U C99A A150G | ≤ -4.2
C10U C27U C35G C87G C96U U148G | ≤ -4.2
C10U C32G C35U A73G C95G C103G U144C | ≤ -4.2
C10U C32G G67A U82A C87G A91G C129A U151A | ≤ -4.2

Variant | polymerase ribozyme fitness (log ratio)
C10U C32U A41U | ≤ -4.2
C10U C32U A52U G74A G86A A89G A107C G140U U148C | ≤ -4.2
C10U C35G U45A C76G | ≤ -4.2
C10U C35U | -3.04
C10U C38G C85G A89G G128U C129U U135G U148G | ≤ -4.2
C10U C51U A73U C87G C99A C125G U130A U139C A142G | ≤ -4.2
C10U C54A G65C C93G | ≤ -4.2
C10U C54A G88U A115G | ≤ -4.2
C10U C85G | -3.57
C10U C87A | ≤ -4.2
C10U C103G C132U | ≤ -4.2
C10U G11C C27U G34A A41G C118U A137U | ≤ -4.2
C10U G11U C54U U56A G58A A73G C85G U104A U111G A120U G143C | ≤ -4.2
C10U G42C G83U A97G G124U G133C | ≤ -4.2
C10U G46A C96G | ≤ -4.2
C10U G50C A64C G65C C93A A142U | ≤ -4.2
C10U G59A C85U | ≤ -4.2
C10U G70U C87A C118U | ≤ -4.2
C10U G84A | -3.34
C10U G86C | ≤ -4.2
C10U G136A | -2.74

Variant | polymerase ribozyme fitness (log ratio)
C10U U13G C27A U33A C75G G88A A122U | ≤ -4.2
C10U U15A A23U C32A C51U U55G U111G | ≤ -4.2
C10U U15A A23U C36U U111G | ≤ -4.2
C10U U15A A40C U53A C87A U135C U148A | ≤ -4.2
C10U U15C A40C U61A G71A G86A C132G G141U A147U | ≤ -4.2
C10U U31C C54U G80A G92A C125U G141A | ≤ -4.2
C10U U33G C38G U44G A52G C87U C108U C118U | ≤ -4.2
C10U U44A U102G A119C A121G A137C G143A | ≤ -4.2
C10U U45A G81U | ≤ -4.2
C10U U53A | -2.96
C10U U77G C87A G117U | ≤ -4.2
C10U U78A C87G C116G G117A | ≤ -4.2
G11A A12G C38U A41U C69U G83U | -3.51
G11A A12U C38U A60U C76A C95G C99U C123G A142C | ≤ -4.2
G11A A17C A26C C43U G92U U144G | ≤ -4.2
G11A A17C A39C | -3.25
G11A A20G A26C C32G U33G G81A A89U U102G A106U | ≤ -4.2
G11A A20U C32U G84A | ≤ -4.2
G11A A22U C43G A73U C93G U102G C105U A150C | ≤ -4.2
G11A A24G A41U C51A G59A G80A G84U U90A | ≤ -4.2
G11A A24U A49C C51U U101G | ≤ -4.2

Variant | polymerase ribozyme fitness (log ratio)
G11A A26C G68U C75U A147C | ≤ -4.2
G11A A29U U82G C87A G94C C96U A98G A122C G141A | ≤ -4.2
G11A A30G C118G | ≤ -4.2
G11A A39C U56A C132A A150G | ≤ -4.2
G11A A39G C54G C87U C96G | ≤ -4.2
G11A A60G G65C | ≤ -4.2
G11A A60G U77G G84U A91U | ≤ -4.2
G11A A64G G88U U101G C103G U146G | ≤ -4.2
G11A C14G A19U C27A U31C C118G | ≤ -4.2
G11A C14G A37C C54G G83C G141A | ≤ -4.2
G11A C14G A66U C87A A106U G143C | ≤ -4.2
G11A C14U C54U A89G C95A G141U | ≤ -4.2
G11A C32U G50A C57A C125G | ≤ -4.2
G11A C35A G86A | ≤ -4.2
G11A C38U G59C A64U G81A C93U G94C | ≤ -4.2
G11A C75A G86U | ≤ -4.2
G11A C85G C93U G126A A150C | ≤ -4.2
G11A C87A G92U A107U C114U U148A | ≤ -4.2
G11A G34C A47G C103G A121U | ≤ -4.2
G11A G50U U82C G86A C116A | -3.47
